Earlier results on 1 substance are cited in US20260248747A1, “PHYSICAL PERFORMANCE AID” (aXichem AB, priority 2023, published 2026).

The conditions of this data set: both doses: 0.625 mg and 2.5 mg; cited from earlier work.

With phenylcapsaicyn, the “safety range according to EFSA expert panel” value was “considered in the safety range”.
